PubChem BioAssay AID1347434 (National Center for Advancing Translational Sciences (NCATS), 2020)
Out of some 1,200 compounds screened, about 30 (2%) were called active. Not shown: some 23% with an inconclusive outcome. The call rests on the fitted dose curve; in most records, active means well fitted inhibition curve with a large enough effect; inconclusive means small, poorly fitted or top-dose-only effect; inactive means flat fitted curve, though single readings scatter. The list shows a part of the results.

Target: Single-stranded DNA cytosine deaminase (Homo sapiens) (UniProt Q9GZX7)
UniProt Q9GZX7, sequence (Q9GZX7 whole entry, looked up): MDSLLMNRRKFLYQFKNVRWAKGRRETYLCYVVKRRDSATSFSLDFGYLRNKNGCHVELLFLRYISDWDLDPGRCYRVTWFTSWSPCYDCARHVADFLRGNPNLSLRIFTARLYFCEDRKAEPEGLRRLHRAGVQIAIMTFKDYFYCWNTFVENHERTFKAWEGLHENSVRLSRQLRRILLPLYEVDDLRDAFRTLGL
Experiment: Confirmatory qHTS assay for inhibitors of Activation Induced Cytidine Deaminase (AID): AID signals
Details: recombinant AID, FRET deamination/UDG coupled fluorescence, 4 h; series mostly up to 115 µM; activity, negative = inhibition: at the top concentration
Summary of the method: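 Read 1 (AID) was measured at 540 ex/590 em after a 30 min NaOH step. The reaction was AID (1 uM, 4/3x stock) with UDG, compound at final 7.32 nM - 114 uM for 10 min, then DJC20/DJC23 substrate for 4 hr at room temperature. A UDG read at 560/665 serves as counterscreen.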
On the % scale 0 is the no-effect control and ±100 the full control effect.

activity, negative = inhibition, inactive:
Cc1ccc(-n2cnc3cc(C(=O)NCCC4=CCCCC4)ccc32)c(C)c1 -13.5%, COc1ccccc1Oc1nc2c(c(=O)n(C)c(=O)n2C)n1Cc1cccc(Br)c1 -9.92%, Cc1ccc(Cl)cc1N1CCN(C(=O)c2cc(S(=O)(=O)N3CCC(C)CC3)cn2C)CC1 -7.62%, COc1ccc(NC(=O)N(CCC(C)C)C(C)c2cccs2)c(OC)c1 (stereo unspecified) -3.17%, Cc1ccc(CCNC(=O)c2ccc3c(c2)N(Cc2ccccc2F)C(=O)c2ccccc2S3=O)cc1 (stereo unspecified) -6.19%, CCc1ccccc1NC(=O)[C@H](Cc1ccccc1)N1Cc2ccccc2C1=O -6.67%, Cc1ccc(C)c(C(=O)N2CCC(c3nc4c(nnn4Cc4ccccc4)c(=O)[nH]3)CC2)c1 -19.8%, COc1cccc(NC(=O)Cn2c(=O)n(Cc3ccccc3)c(=O)c3c4c(sc32)CN(C(C)=O)CC4)c1 2.23%, Cc1ccc(N2CCN(C(=O)c3nn(C)c4c3CS(=O)(=O)c3ccccc3-4)CC2C)cc1 (stereo unspecified) -7.73%, Cc1nc2c(-c3ccccc3)c(C)nn2c(C)c1CCC(=O)N1CCN(c2ccccc2)CC1 -7.22%, COc1ccc(Cn2cc(C(=O)c3ccc(OC)cc3)c(=O)c3cc4c(cc32)OCCO4)cc1 -13.8%, Cc1cc(NC(=O)c2oc3c(c2C)-c2[nH]ncc2CC3)ccc1Br 53.2%, O=C(c1ccc2c(c1)N(Cc1ccccc1Cl)C(=O)c1ccccc1S2)N1CCCC1 -3.26%, COc1ccc(N2C(=O)CSC23C(=O)N(CC(=O)NCc2ccccc2)c2ccccc23)cc1 (stereo unspecified) -0.726%, CCc1ccc(S(=O)(=O)c2cnc3ccc(OC)cc3c2N2CCCC(C)C2)cc1 (stereo unspecified) -7.45%, Cc1ccc(Nc2c(-c3ccsc3)nc3cccc(C)n23)cc1 2.76%, CCCCCSc1nnc2c(n1)OC(CC)Nc1ccc(Br)cc1-2 (stereo unspecified) -3.45%, CCC(C(=O)Nc1cc(OC)ccc1OC)n1c(=O)c(C(F)(F)F)nc2ccccc21 (stereo unspecified) -11.8%, COc1ccc(S(=O)(=O)N(CC(=O)NC(C)c2ccccc2)c2ccc(C)cc2)cc1OC (stereo unspecified) 1.71%, Cc1ccc2nc(-c3ccccn3)c(Nc3ccccc3C)n2c1 -19.5%, COc1ccc(-c2nc(CSCC(=O)NCc3ccccc3Cl)c(C)o2)cc1OC -1.37%, CCCCCN1C(C(=O)c2ccccc2)=C(OC(=O)CC)c2ccccc2S1(=O)=O -12.7%, Cc1cccc(N2CCN(C(=O)C(C)n3nc(C)n4c(cc5occc54)c3=O)CC2)c1C (stereo unspecified) -6.52%, CCn1cc(C(=O)NCCc2ccccc2)c(=O)c2cc(S(=O)(=O)N3CCCCCC3)ccc21 -14.2%, N#CC1=C2SCN(C3CCCCC3)CN2C(=O)CC1c1ccc(Br)cc1 (stereo unspecified) -18.3%, CCc1nc(Nc2ccc(F)c(Cl)c2)c2c3c(sc2n1)CCCC3 2.84%, Cc1nc2cc(C(=O)NCCC3=CCCCC3)ccc2n1-c1ccc(Br)cc1 -10.9%, O=C(COc1ccccc1Cl)N(Cc1ccco1)Cc1ccco1 -12.5%, Cc1ccc2ncc(S(=O)(=O)c3ccccc3)c(N3CCCCC3C)c2c1 (stereo unspecified) -27.6%, Cc1nn(-c2ccccc2)c(-n2cccc2)c1C(=O)NCCc1ccc(Cl)cc1 -7.18%, Cc1cccc(CCNc2ncnc3onc(-c4ccc(Cl)cc4)c23)c1 2.28%, COc1ccc(CCNC(=O)CSc2cn(CCNC(=O)c3cccc(C(F)(F)F)c3)c3ccccc23)cc1OC -5.23%, Cc1ccc(C(=O)c2cn(Cc3cccc(C)c3)c3nc(C)ccc3c2=O)cc1 -14.7%, CCN(C(=O)Cn1c(SCC(=O)Nc2ccc(OC)cc2)nc2ccccc21)c1cccc(C)c1 -22%, Cc1ccc(COc2ccc3oc(-c4ccccc4)c(C(=O)O)c3c2)cc1 -23.5%, Cc1ccc(CNC(=O)c2sc3nc4n(c(=O)c3c2C)CCCC4)cc1 -0.809%, CCOC(=O)c1ccc(-c2ccc(/C=C(\C#N)c3nc4ccc(C)cc4[nH]3)o2)cc1 -12.6%, N#CC1=C2SCN(C3CCCCC3)CN2C(=O)CC1c1c(F)cccc1Cl (stereo unspecified) 1.71%, CCCN1CCN(c2cc3c(cc2F)c(=O)c(S(=O)(=O)c2ccc(CC)cc2)cn3CC)CC1 -6.7%, Cc1ccc(-c2ccc(=O)n(CC(=O)Nc3ccc(C)cc3Cl)n2)cc1 -24.2%, COc1ccc(CC(=O)Nc2sc3c(c2C(=O)Nc2cccc(Cl)c2)CCCCC3)cc1 2.52%, Fc1ccc(CNc2ncnc3onc(-c4ccc(F)cc4)c23)cc1 -9.5%, CCCN(CCC)CC(O)Cn1cc(/C=C/C(=O)c2ccc(C)cc2)c2ccccc21 (stereo unspecified) -15.2%, COc1ccccc1Cn1cc(C(=O)c2ccc(C)cc2)c(=O)c2cc(C)ccc21 -14.3%, CCC(Oc1ccccc1F)C(=O)N1CCC(c2nc3ccccc3s2)CC1 (stereo unspecified) -7.66%, COc1ccc(N2CCN(Cc3cccn3-c3nnc(N4CCN(C5CCCCC5)CC4)s3)CC2)cc1 -4.16%, CCCCN(CC)CCCNC(=O)c1ccc2c(c1)N(Cc1ccc(C)cc1)C(=O)c1ccccc1S2 -23.5%, Cc1ccc(CNC(=O)C2CCCN(c3nc4ccccc4n4cccc34)C2)cc1 (stereo unspecified) -2.08%, COCCNC(=O)c1ccc2c(c1)N(Cc1ccc(C(F)(F)F)cc1)C(=O)c1ccccc1S2 -3.98%, N#C/C(=C\c1ccc(-c2ccc(Cl)c(C(=O)O)c2)o1)c1nc2ccccc2[nH]1 -24.3%, CCn1cc(C(=O)OCC(=O)Nc2cccc(C(C)=O)c2)c(=O)c2ccc(C)nc21 -6.41%, CCOc1ccc(CN2CCc3nc(Nc4ccc(OC)cc4OC)ncc3C2)cc1 -2.62%, COc1ccc(CNc2oc(-c3ccc(COc4ccccc4C)o3)nc2C#N)cc1 -0.216%, Cc1ccc(Cl)cc1N1CCN(Cc2nnc(-c3ccc4c(c3)OCO4)o2)CC1 -7.22%, CC(C)(C)OC(=O)N1CCC(c2c(C(=O)N3CCC(c4ccccc4)C3)cnn2-c2cccc(Cl)c2)CC1 (stereo unspecified) -6.06%, Cc1ccc(-c2nc3sc(CCNC(=O)c4ccc(Br)o4)c(C)n3n2)cc1 -14.3%, COc1cccc(CNC(=O)c2cc3c(s2)-c2ccccc2OC3)c1 -10.7%, Cc1nc2c(C(=O)NCc3ccccc3)c[nH]n2c(=O)c1Cc1ccccc1Cl -12.7%, Cc1cccc(CCNC(=O)c2sc3nc4n(c(=O)c3c2C)CCCC4)c1 -13.8%, Clc1ccc(-c2noc3ncnc(NCCc4ccccc4)c23)cc1 -12.8%, CCC(Sc1nc2ccccc2c(=O)n1CCc1ccc(OC)c(OC)c1)C(=O)N(CC)CC (stereo unspecified) -6.51%
